Some of the results follow.

Our source for the binding signal values is publication PMC12820563, “FoxP3 forms a head-to-head dimer in vivo and stabilizes its multimerization on adjacent microsatellites”.

This test has as its target T1, MBP-FoxP1dN (Mus musculus, UniProt P58462 326-579).
T1 sequence: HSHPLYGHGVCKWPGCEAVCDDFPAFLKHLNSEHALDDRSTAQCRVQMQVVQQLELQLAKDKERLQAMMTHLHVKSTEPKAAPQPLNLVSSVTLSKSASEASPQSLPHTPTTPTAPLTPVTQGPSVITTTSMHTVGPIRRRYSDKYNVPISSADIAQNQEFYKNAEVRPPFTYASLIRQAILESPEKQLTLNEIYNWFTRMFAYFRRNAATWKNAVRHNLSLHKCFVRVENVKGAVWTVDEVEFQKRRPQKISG
Put plainly: PD-seq (MBP pull-down with sequencing); 20 mM Tris-HCl pH 7.5, 100 mM NaCl, 1.5 mM MgCl2, 0.4 uM protein, 0.1 uM dsDNA library, 30 min, room temperature, amylose pull-down; high values mean tight binding. To be noted: protein: recombinant; tags: His6-MBP; chain copies: 2; dsDNA, one strand shown. The method, boiled down: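 Binding is given as reads-per-million enrichment, pull-down over input, with replicates pooled. The bait was an N-terminus-lacking mouse FoxP3 or FoxP1 fragment with a His6-MBP tag, expressed in E. coli and used at 0.4 µM with 0.1 µM Klenow-filled degenerate double-stranded DNA library for 30 min at room temperature in Tris pH 7.5 buffer with NaCl and MgCl2. Amylose resin pull-down with three washes was followed by proteinase K release, PCR barcoding and Illumina sequencing.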
With “GATGATTGTTCTCCCAGCTGATGAATTGATTATCTCGAGTAAACAAATTTTCCTAATCTTTCTGTTCAAGCGCCATCTAC”, the binding signal is 1.22 RPM ratio (pull-down/input).

For the sequence “GATGATTGTTCTCCCAGCTGATGAATTTCTCTAGTCGAGTAAACAAATTTTCCTAATCTTTCTGTTCAAGCGCCATCTAC”, the binding signal was 0.844 RPM ratio (pull-down/input).

As to “GATGATTGTTCTCCCAGCTGATGAATTTGCGCAGTCGAGTAAACAAATTTTCCTAATCTTTCTGTTCAAGCGCCATCTAC”, the binding signal was 0.932 RPM ratio (pull-down/input).

On to “GATGATTGTTCTCCCAGCTGATGAATTCTTGCACTCGAGTAAACAAATTTTCCTAATCTTTCTGTTCAAGCGCCATCTAC”, for which the binding signal was 0.933 RPM ratio (pull-down/input).

On to “GATGATTGTTCTCCCAGCTGATGAATTTTCATTGTCGAGTAAACAAATTTTCCTAATCTTTCTGTTCAAGCGCCATCTAC”, for which the binding signal is 1.19 RPM ratio (pull-down/input).

As to “GATGATTGTTCTCCCAGCTGATGAATTTGTGGGCTCGAGTAAACAAATTTTCCTAATCTTTCTGTTCAAGCGCCATCTAC”, the binding signal is 0.875 RPM ratio (pull-down/input).

For “GATGATTGTTCTCCCAGCTGATGAATTTTATGCATCGAGTAAACAAATTTTCCTAATCTTTCTGTTCAAGCGCCATCTAC”, the binding signal was 1.38 RPM ratio (pull-down/input).

Consider “GATGATTGTTCTCCCAGCTGATGAATTAGCTCCATCGAGTAAACAAATTTTCCTAATCTTTCTGTTCAAGCGCCATCTAC”, for which the binding signal is 0.985 RPM ratio (pull-down/input).

Consider “GATGATTGTTCTCCCAGCTGATGAATTTCGAAGATCGAGTAAACAAATTTTCCTAATCTTTCTGTTCAAGCGCCATCTAC”, for which the binding signal was 0.875 RPM ratio (pull-down/input).

Turning to “GATGATTGTTCTCCCAGCTGATGAATTCGCCAAGTCGAGTAAACAAATTTTCCTAATCTTTCTGTTCAAGCGCCATCTAC”, the binding signal is 0.735 RPM ratio (pull-down/input).

With “GATGATTGTTCTCCCAGCTGATGAATTGGAACAGTCGAGTAAACAAATTTTCCTAATCTTTCTGTTCAAGCGCCATCTAC”, the binding signal was 0.847 RPM ratio (pull-down/input).

Turning to “GATGATTGTTCTCCCAGCTGATGAATTCCTCCAATCGAGTAAACAAATTTTCCTAATCTTTCTGTTCAAGCGCCATCTAC”, the binding signal is 0.937 RPM ratio (pull-down/input).

Regarding “GATGATTGTTCTCCCAGCTGATGAATTAACGGATTCGAGTAAACAAATTTTCCTAATCTTTCTGTTCAAGCGCCATCTAC”, the binding signal is 0.846 RPM ratio (pull-down/input).

Regarding “GATGATTGTTCTCCCAGCTGATGAATTTTCCCTTTCGAGTAAACAAATTTTCCTAATCTTTCTGTTCAAGCGCCATCTAC”, the binding signal was 0.93 RPM ratio (pull-down/input).

“GATGATTGTTCTCCCAGCTGATGAATTAACCTTTTCGAGTAAACAAATTTTCCTAATCTTTCTGTTCAAGCGCCATCTAC”: the binding signal was 0.881 RPM ratio (pull-down/input).

As for “GATGATTGTTCTCCCAGCTGATGAATTCGCATGATCGAGTAAACAAATTTTCCTAATCTTTCTGTTCAAGCGCCATCTAC”, the binding signal is 0.921 RPM ratio (pull-down/input).

Consider “GATGATTGTTCTCCCAGCTGATGAATTATCAGCATCGAGTAAACAAATTTTCCTAATCTTTCTGTTCAAGCGCCATCTAC”, for which the binding signal is 1.17 RPM ratio (pull-down/input).

On to “GATGATTGTTCTCCCAGCTGATGAATTCTCGCTGTCGAGTAAACAAATTTTCCTAATCTTTCTGTTCAAGCGCCATCTAC”, for which the binding signal was 0.87 RPM ratio (pull-down/input).

On to “GATGATTGTTCTCCCAGCTGATGAATTTCGCGGGTCGAGTAAACAAATTTTCCTAATCTTTCTGTTCAAGCGCCATCTAC”, for which the binding signal is 0.737 RPM ratio (pull-down/input).

For the sequence “GATGATTGTTCTCCCAGCTGATGAATTGGGCCCGTCGAGTAAACAAATTTTCCTAATCTTTCTGTTCAAGCGCCATCTAC”, the binding signal was 0.81 RPM ratio (pull-down/input).

As to “GATGATTGTTCTCCCAGCTGATGAATTCCTGGGGTCGAGTAAACAAATTTTCCTAATCTTTCTGTTCAAGCGCCATCTAC”, the binding signal is 0.725 RPM ratio (pull-down/input).

Turning to “GATGATTGTTCTCCCAGCTGATGAATTGGGCGAATCGAGTAAACAAATTTTCCTAATCTTTCTGTTCAAGCGCCATCTAC”, the binding signal is 0.944 RPM ratio (pull-down/input).

Take “GATGATTGTTCTCCCAGCTGATGAATTTGGATATTCGAGTAAACAAATTTTCCTAATCTTTCTGTTCAAGCGCCATCTAC”: the binding signal is 0.97 RPM ratio (pull-down/input).

With “GATGATTGTTCTCCCAGCTGATGAATTTAGTTTATCGAGTAAACAAATTTTCCTAATCTTTCTGTTCAAGCGCCATCTAC”, the binding signal is 1.89 RPM ratio (pull-down/input).

Turning to “GATGATTGTTCTCCCAGCTGATGAATTGCTATAGTCGAGTAAACAAATTTTCCTAATCTTTCTGTTCAAGCGCCATCTAC”, the binding signal is 1.08 RPM ratio (pull-down/input).

Regarding “GATGATTGTTCTCCCAGCTGATGAATTCGAATAATCGAGTAAACAAATTTTCCTAATCTTTCTGTTCAAGCGCCATCTAC”, the binding signal was 1.13 RPM ratio (pull-down/input).

For “GATGATTGTTCTCCCAGCTGATGAATTTTTTTCATCGAGTAAACAAATTTTCCTAATCTTTCTGTTCAAGCGCCATCTAC”, the binding signal is 1.02 RPM ratio (pull-down/input).

For the sequence “GATGATTGTTCTCCCAGCTGATGAATTGAGAGGATCGAGTAAACAAATTTTCCTAATCTTTCTGTTCAAGCGCCATCTAC”, the binding signal is 0.854 RPM ratio (pull-down/input).

As to “GATGATTGTTCTCCCAGCTGATGAATTCATGGTTTCGAGTAAACAAATTTTCCTAATCTTTCTGTTCAAGCGCCATCTAC”, the binding signal was 0.912 RPM ratio (pull-down/input).

With “GATGATTGTTCTCCCAGCTGATGAATTTTTAAATTCGAGTAAACAAATTTTCCTAATCTTTCTGTTCAAGCGCCATCTAC”, the binding signal is 1.09 RPM ratio (pull-down/input).

“GATGATTGTTCTCCCAGCTGATGAATTTGTCGAATCGAGTAAACAAATTTTCCTAATCTTTCTGTTCAAGCGCCATCTAC”: the binding signal is 1.11 RPM ratio (pull-down/input).

Turning to “GATGATTGTTCTCCCAGCTGATGAATTATGATTATCGAGTAAACAAATTTTCCTAATCTTTCTGTTCAAGCGCCATCTAC”, the binding signal is 1.51 RPM ratio (pull-down/input).
